Experimental data reported in PubChem BioAssay AID686979 (National Center for Advancing Translational Sciences (NCATS), 2013).
“And” between values parts separate entries of the source, which are not always exact repeats. Equal values may be shown once. Out of some 420,000 compounds screened, about 50,000 (12%) were called active. This list was built around the results that the source calls inconclusive (neither active nor inactive); the mix of calls is not that of the screen. Calls come from the whole dose curve; as a rule, active = well fitted inhibition curve with a large enough effect; inconclusive = small, poorly fitted or top-dose-only effect; inactive = flat fitted curve, though single readings scatter. Where the call is inconclusive, the potency comes from a doubtful curve fit.

Experiment: qHTS for Inhibitors of human tyrosyl-DNA phosphodiesterase 1 (TDP1): qHTS in cells in presence of CPT; note: nearly all actives have a fitted effect of over 55% in size
Settings: chicken DT40 Tdp1-/-;hTDP1 cells + 20 nM CPT, ATP luminescence, 48 h; activity change, negative = growth inhibition: at 46.2 µM (top of the series) unless noted
Summary of the method: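 Chicken DT40 Tdp1-/- cells stably complemented with human TDP1 were seeded at 400 cells/well in medium containing 20 nM camptothecin, exposed to pin-transferred compounds, and grown at 37 °C for at least 48 hr. Viability was read as ATP luminescence.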
% is set by controls: 0 for no effect and ±100 for the full control effect; potency is the fitted concentration of half-maximal effect; tags give direction and shape of the fitted curve.

Question: With O=C(c1ccccc1)N(C(=O)c1ccccc1)c1ccccc1 as the compound, how does the Potency read?
Answer: inactive

Question: For O=C(CNc1cccc(S(=O)(=O)N2CCCC2)c1)Nc1ccc(C(F)(F)F)cc1, which Potency is on record?
Answer: active: 16.4 µM

Question: With O=C1CC(Sc2ncn[nH]2)C(=O)N1c1ccccc1 (stereo not drawn) as the compound, how does the Potency read?
Answer: active: 8.2 µM

Question: With CN(Cc1ccccc1)C(=O)c1cccc(NC(=O)Cc2ccc(NC(=O)C3CCN(C(=O)CCc4ccccc4)CC3)cc2)c1 as the compound, how does the Potency read?
Answer: inconclusive: 23.1 µM [inhibitor, single point]

Question: For COc1ccc(C(=O)N2CCC3(CC2)c2ccccc2[C@@H](NC(=O)c2ccccn2)[C@@H]3OC)c(O)c1, which Potency is on record?
Answer: inconclusive: 0.103 µM [inhibitor, full curve, poor fit]

Question: With CCOC(=O)c1c(C)oc(C)c(C(=O)OCC)c1=O as the compound, how does the Potency read?
Answer: inactive

Question: Which Potency does the source give for CC(C)(C)c1cc(C2=CSC3=NCCN23)cc(C(C)(C)C)c1O here?
Answer: inconclusive: 18.4 µM [inhibitor, single point]

Question: With COC(=O)[C@]1(Cc2ccccc2)N[C@H](CN(C)C(=O)C2CCCCC2)[C@@H]2C(=O)N(Cc3ccccc3)C(=O)[C@@H]21 as the compound, how does the Potency read?
Answer: active: 20.6 µM

Question: For O=c1[nH]c2ccccc2nc1/C=C/c1ccc(Cl)cc1, which Potency is on record?
Answer: active: 13 µM

Question: With COc1ccc(C(c2nnnn2C2CCCC2)N2CCc3ccccc3C2)cc1OC (stereo not drawn) as the compound, how does the Potency read?
Answer: inconclusive: 29.1 µM [inhibitor, partial curve, poor fit]

Question: Which Potency does the source give for COC(=O)c1ccccc1NC(=O)C1COc2ccccc2O1 (stereo not drawn) here?
Answer: inactive

Question: With Cc1ccc(C)c(S(=O)(=O)N2CCN(C(C)C(=O)Nc3ccccc3-c3ccccc3)CC2)c1 (stereo not drawn) as the compound, how does the Potency read?
Answer: inconclusive: 29.1 µM [inhibitor, single point]

Question: For CC(=O)Nc1cc(-c2cccc(C(=O)NCCN(C)C)c2)cn2c(-c3ccc(F)c(Cl)c3)cnc12, which Potency is on record?
Answer: active: 2.06 µM

Question: With O=C(CN1CCN(C(=O)c2ccc(-c3nc4ccccc4s3)o2)CC1)Nc1ccc(F)cc1 as the compound, how does the Potency read?
Answer: inconclusive: 18.4 µM [inhibitor, single point]

Question: With CN(Cc1ccc(Cl)cc1Cl)C(=O)C1CSC2(C)CCC(=O)N12 (stereo not drawn) as the compound, how does the Potency read?
Answer: active: 13 µM

Question: With Oc1c(C(c2ccccc2Cl)N2CCCC2)sc2nc(-c3ccco3)nn12 (stereo not drawn) as the compound, how does the Potency read?
Answer: inconclusive: 29.1 µM [inhibitor, single point]

Question: Which Potency does the source give for CCOc1ccc(C(=O)c2cn(Cc3ccccc3OC)c3ccc(F)cc3c2=O)cc1 here?
Answer: active: 16.4 µM

Question: Which Potency does the source give for COC(=O)c1ccc(OC)cc1OCC(=O)N1CCN(c2ccc(F)cc2)CC1 here?
Answer: inactive

Question: For O=C(c1ccc(CN2CCc3ccccc3C2)cc1)N1CCc2ccccc2C1, which Potency is on record?
Answer: inconclusive: 18.4 µM [inhibitor, single point]

Question: With COc1ccc(S(=O)(=O)N2CCC(Oc3ccc(-n4cnnn4)cc3)CC2)cc1OC as the compound, how does the Potency read?
Answer: inconclusive: 25.9 µM [inhibitor, single point]

Question: With CSc1ncccc1C(=O)Nc1cccc(S(=O)(=O)N(C)c2ccccc2)c1 as the compound, how does the Potency read?
Answer: active: 18.4 µM

Question: For CCN(CC(=O)NCc1cccs1)C(=O)c1cc(Br)ccc1O, which Potency is on record?
Answer: inconclusive: 23.1 µM [inhibitor, single point]

Question: For Cc1cscc1-c1nc(NCC2CC2)nc2ccsc12, which Potency is on record?
Answer: inconclusive: 29.1 µM [inhibitor, single point]

Question: For COC(=O)c1ccc(CN2CCC(n3nccc3NC(=O)C3CC3)CC2)cc1, which Potency is on record?
Answer: inactive

Question: Which Potency does the source give for Cc1cc(C)n(-c2cc(N3CCN(S(=O)(=O)c4ccc(Cl)cc4)CC3)ccc2[N+](=O)[O-])n1 here?
Answer: active: 7.31 µM

Question: With COCCn1c(SCc2csc(-c3ccccc3)n2)nc2ccccc21 as the compound, how does the Potency read?
Answer: active: 16.4 µM

Question: Which Potency does the source give for C[C@@H](NC(=O)c1[nH]cnc1C(=O)Nc1cccc(Cl)c1)c1ccccc1 here?
Answer: inconclusive: 18.4 µM [inhibitor, single point]

Question: For COc1cccc(N/C(N)=N/c2nc(C(F)(F)F)cc(=O)[nH]2)c1, which Potency is on record?
Answer: active: 10.3 µM

Question: With COc1ccc(Cc2c(-c3ccc(C)cc3)nc3cc(C)c(Br)c(C)n23)c(C)c1 as the compound, how does the Potency read?
Answer: active: 2.31 µM

Question: Which Potency does the source give for C[C@H]1CN([C@@H](C)CO)S(=O)(=O)c2ccc(Br)cc2O[C@H]1CN(C)C(=O)C1CCC1 here?
Answer: inconclusive: 23.1 µM [inhibitor, single point]

Question: For CCOC(=O)[C@]12CCC=C1N(Cc1ccc3c(c1)OCO3)C(=O)[C@H](CC(=O)NCCc1ccccc1OC)C2, which Potency is on record?
Answer: inconclusive: 16.4 µM [inhibitor, single point]

Question: For Cc1cc(OC(C)C(=O)N2CCN(c3ccccc3)CC2)c2c(C)c(C)c(=O)oc2c1 (stereo not drawn), which Potency is on record?
Answer: inconclusive: 18.4 µM [inhibitor, single point]

Question: For O=C1CCC(C(=O)N2CCCCO2)CN1Cc1cccc(F)c1 (stereo not drawn), which Potency is on record?
Answer: inactive

Question: With CN(C)c1ccc(N=Nc2ccccc2C(=O)OCC(=O)N2CCCCCC2)cc1 as the compound, how does the Potency read?
Answer: inconclusive: 20.6 µM [inhibitor, single point]

Question: With COc1ccc(CCNc2ncnc3c2cnn3-c2ccc(C)cc2)cc1 as the compound, how does the Potency read?
Answer: inconclusive: 29.1 µM [inhibitor, single point]

Question: Which activity change, negative = growth inhibition does the source give for CCN(CC)CCN(C)C(c1cc2ccccc2o1)c1nnnn1C(C)(C)C (stereo not drawn) here?
Answer: inconclusive: -31.8% [inhibitor]

Question: With Cc1nn(-c2ccccc2)c2nc(C3CC3)cc(C(=O)Nc3ccccc3F)c12 as the compound, how does the Potency read?
Answer: active: 7.31 µM

Question: With COc1ccccc1C1CCN(Cc2ccc(C)cc2)CC1 as the compound, how does the Potency read?
Answer: inconclusive: 29.1 µM [inhibitor, single point]

Question: With COc1ccccc1N(C)S(=O)(=O)c1ccc(C(=O)Nc2cc(F)ccc2C)cc1 as the compound, how does the Potency read?
Answer: inconclusive: 29.1 µM [inhibitor, single point]

Question: Which Potency does the source give for O=S(=O)(c1ccc(F)c(F)c1)N1CCN(S(=O)(=O)c2cccs2)CC1 here?
Answer: inactive

Question: For O=C(NCc1ccco1)c1ccc2c(c1)N(Cc1cccc(Cl)c1)C(=O)c1ccccc1S2(=O)=O, which Potency is on record?
Answer: inconclusive: 4.61 µM [inhibitor, partial curve, poor fit]

Question: For CC(=O)N1C2CCCCC2S[C@H]2CCCCC21 (stereo partly drawn), which Potency is on record?
Answer: inactive

Question: Which Potency does the source give for COc1ccc(C2C(=O)N(C3CCCCCC3)CC(=O)N2Cc2ccc(C)cc2)cc1OC (stereo not drawn) here?
Answer: active: 23.1 µM

Question: With CSc1ccc(CNc2ccc(Cl)cc2)cc1 as the compound, how does the Potency read?
Answer: inactive

Question: Which Potency does the source give for O=C(NCCc1c[nH]c2ccccc12)C(=O)Nc1cc2c3c(c1)CC(=O)N3CCC2 here?
Answer: inconclusive: 18.4 µM [inhibitor, single point]

Question: For O=C(CNC(c1ccccc1)c1ccccc1)Nc1c(F)cccc1F, which Potency is on record?
Answer: inconclusive: 25.9 µM [inhibitor, single point]

Question: Which activity change, negative = growth inhibition does the source give for COc1cc(C(=O)N2CCC(c3nc4ccccc4o3)CC2)cc(OC)c1OC here?
Answer: inconclusive: -32.6% [inhibitor]

Question: With Cc1c(NS(=O)(=O)c2ccccc2)cc(C(C)C)c(O)c1S(=O)(=O)c1ccc(Cl)cc1 as the compound, how does the Potency read?
Answer: inconclusive: 29.1 µM [inhibitor, single point]

Question: For COc1ccc(-c2nnc3ccc(SCC(=O)N4CCN(c5ccccc5)CC4)nn23)cc1, which Potency is on record?
Answer: inconclusive: 3.66 µM [inhibitor, single point]

Question: Which Potency does the source give for Nc1nc2c(ncn2[C@@H]2O[C@H](COP(=O)(O)OP(=O)(O)OP(=O)(O)O)[C@@H](O)C2O)c(=O)[nH]1 (stereo partly drawn) here?
Answer: inconclusive: 4.11 µM [inhibitor, full curve, poor fit]

Question: Which activity change, negative = growth inhibition does the source give for O=C(NCc1ccc(Cl)cc1Cl)C1CC(=O)N(Cc2ccccc2)C1 (stereo not drawn) here?
Answer: inconclusive: 10.1% [inhibitor]

Question: Which Potency does the source give for CC(C)(C)c1ccc(C(=O)C[n+]2cc(Br)cc(Br)c2)cc1 here?
Answer: inconclusive: 35.5 µM [inhibitor, single point]

Question: With Cc1[nH]n(-c2ccc([N+](=O)[O-])cc2)c(=O)c1C=NCCc1c[nH]c2ccccc12 as the compound, how does the Potency read?
Answer: active: 11.6 µM

Question: With O=C1c2ccccc2C(=O)N1CCC1(O)C(c2ccccc2)=Nc2ccccc21 (stereo not drawn) as the compound, how does the Potency read?
Answer: inconclusive: 29.1 µM [inhibitor, single point]

Question: Which Potency does the source give for C(=C\c1ccccc1)/CN1CCN(C(c2ccccc2)c2ccccc2)CC1 here?
Answer: inactive and inconclusive: 16.4 µM [inhibitor, single point]

Question: Which Potency does the source give for CC(C)C[C@H](NC(=O)c1nc[nH]c1C(=O)N[C@@H](CC(C)C)C(=O)OC(C)(C)C)C(=O)OCc1ccccc1 here?
Answer: inconclusive: 29.1 µM [inhibitor, single point]

Question: For COc1ccc(C(c2c(O)cc(C)n(Cc3ccco3)c2=O)N2CCCCC2)cc1OC (stereo not drawn), which Potency is on record?
Answer: inactive

Question: For OC(c1ccc(F)c(F)c1)c1nc(-c2ccoc2)cs1 (stereo not drawn), which Potency is on record?
Answer: inconclusive: 23.1 µM [inhibitor, single point]

Question: With CC(=O)Oc1ccc(-c2ccc(C(=O)OCC(=O)c3c(N)n(C)c(=O)n(C)c3=O)cc2)cc1 as the compound, how does the Potency read?
Answer: inconclusive: 29.1 µM [inhibitor, single point]

Question: For CN(CC(=O)Nc1ccc(Cl)cc1)C(=O)c1cccc(S(=O)(=O)N2CCN(Cc3ccccc3)CC2)c1, which Potency is on record?
Answer: active: 5.8 µM

Question: Which Potency does the source give for CCOc1ccc(NC(=O)CSc2nnc(-c3ccccc3)n2N)cc1 here?
Answer: inactive

Question: Which Potency does the source give for COc1ccccc1C(CNC(=O)CNC(=O)c1ccc(C)c(C)c1)N1CCCC1 (stereo not drawn) here?
Answer: inactive

Question: Which Potency does the source give for COc1ccc(OC)c(NC(=O)CSc2nnc(-c3ccco3)n2-c2ccccc2)c1 here?
Answer: active: 20.6 µM

Question: With COc1ccc(O)c(CN2CCC(n3nccc3NC(=O)c3ccccc3Cl)CC2)c1 as the compound, how does the Potency read?
Answer: inconclusive: 25.9 µM [inhibitor, single point]

Question: Which Potency does the source give for COc1cc2c(cc1OC)/C(=C/c1ccc(Br)cc1)C(=O)OC2 here?
Answer: inconclusive: 29.1 µM [inhibitor, single point]

Question: Which Potency does the source give for CN(C)c1ccc(/C=C2\Cc3ccccc3C2=O)cc1 here?
Answer: inconclusive: 7.94 µM [inhibitor, partial curve]

Question: Which Potency does the source give for Cc1ccc(S(=O)(=O)N(C)C)cc1NC(=O)COC(=O)C1CCN(S(=O)(=O)c2cccs2)CC1 here?
Answer: inactive

Question: For COc1cccc(NC(=O)CSc2ncnc3c2oc2ccccc23)c1, which Potency is on record?
Answer: inconclusive: 16.4 µM [inhibitor, single point]
